The values that follow come from PubChem BioAssay (NCI).

Molecules are shown by their SMILES. Some compounds were tested as several samples or in several runs, with calls that do not always agree.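 For each line, cells grew in 96-well plates with the test compound present at a single concentration for 48 hours.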 The source holds more than one record for some entries. This list holds those alone. Rule for the calls: active = growth percent below 10; inactive = the rest. The source may hold further records. These are repeated runs of one drug, at the concentration stated with the values; one value stands for one run. Counts like (3×) say how often a value occurs here.

One assay has as its system HCT-116 colon. Briefly: NCI-60 one-dose screen, 48 h (100 = growth as untreated, 0 = no growth, -100 = all killed). Particulars: 25 µM.
For a further assay, the system named is HCC-2998 colon. The description is as above. The note with it: 0.25 µM.

In the case of `COc1cccc2c1C(=O)c1c(O)c3c(c(O)c1C2=O)C[C@@](O)(C(=O)CO)C[C@@H]3OC1CC(N)C(O)C(C)O1` (some centres not stated), the growth result in the assay with HCT-116 colon (runs of 1994) is “active: 2.42, -19.7, -20.4, -23.2, -41.9, 2.12, -31.5, -5.02, 0.622, 0.942, -27.6, -20.1, -11.5, -48, -17.1, 4.47, -5.79, 4.9, -21.6, -4.52, -46.3, -18.8, 4.27, -43.4, 7.08, -1.42, -7.55, 3.6, -18.7, 4.91, 4.25, 0.576, -14.9%”; with HCT-116 colon (runs of 1995) it was “active: -10.6, -24.3, 4.18, 1.89, 2.75, 1.61, 3.12, 1.85, 2.35, 6.78, -27.8, -15.5, 7.59, 8.04, -5.85, 8.06, 2.57, -15.2, -21.7, -56.8, -32.9, -28.7, -11.5, 0.793, 0.922, -19.9, 1.73, 3.77, -34.8, -10.3, -37.7, -39.5, 1.26, 1.68, 3.44, -14.9, -2.67, -0.193, 1.69%”; with HCT-116 colon (runs of 1996), “active: -5.92, -36.9, 0.616 (2×), -3.49, 1.99 (2×), 0.532, 2.77, 4.48, 1.13, 6.7, 6.69, 3.51, -6.76, 7.2, -14, -38.9, -9.2, 1.8, -12.8, -5.54, -7.58, -19, 6.53, 1.93, -13.3, 2.37, 3.25, -17.7, -56.8, -24.5, 2.49, 5.08, 0.43, -9.86, -3.61, -30.8, -8.03, 6.08, 3.79, 2.85, 0.767, -25.8, -14.2, -26.7, 8.79, -5.46, -14.7, -12.1, -20.5, 6, 6.21, 2.48, 6.98, -10, -48.7% and inactive: 97.2%, 35.1%”; in the assay on HCT-116 colon (runs of 1997), “active: -10, 1.11, -2.34, 2.79, 0.461, -8.75, 6.32, -18, -29.6, 4.28, 0.387, -1.59, -11.1, 3.78, -47.3, -6.31, 1.71, 5.44, -36, 0.201, 0.933, -24.1, 8.51, -50.9, 1.12, -30, 5.67, 0.675, 0.623, -32.4, -30.7, -3.1, -60.2, -15.1, -11.8, 0.741, 1.93, -7.47, -23.9, -1.25, -27.9, 8.37, -43.4%”; in the assay with HCT-116 colon (runs of 1998), “active: -31.5, -29.3, 6.13, -38.6, 4.95, 5.45, -8.93, 1.41, -19.3, -52.8, -15.8, -9.13, 1.26, 4.54, 6.22, 0.542, 1.37, 6.04, -17.1, -45.1, 0.814, -14.2, -55.7, -9.53%”; in the assay with HCT-116 colon (runs of 1999), “active: 2.51, -20.9, 7.19, -12.2, -5.5, -30.1, -100 (2×), 0.0743, -89.6, -33.3, -59.3, 1.9, 2.12, -86.8, -91.3, -82.8, -49.6%”. For the same compound, the growth entry with HCT-116 colon (runs of 2000) is “active: -97.5, -100, -25.5, -50.3%”; with HCC-2998 colon (runs of 2006) it was “active: -23% and inactive: 47.8%”; with HCC-2998 colon (runs of 2007), “active: -22.5, -7.88, -13.1, -27.1, -32.6, -2.46, -11.4, -3.64, 3.73% and inactive: 53.3, 45.1, 36.9, 30.4, 42.5, 50.6, 61, 27.8, 38.9 (2×), 44.3, 69.5, 66.6, 70.2, 39.1, 57, 79.5, 33.8, 51.7, 69.4, 44.7, 38.2, 69.7, 69.8, 83.8, 58.6, 48.5, 20.8, 43.4, 46.5, 57.8%”; with HCC-2998 colon (runs of 2008), “inactive: 55.2, 54.6, 46.1, 58, 65.4, 40.1, 28.9, 39.2, 39.4, 62.9, 24.6, 45, 53.1, 42 (2×), 54, 43.8, 19.6, 26, 46.9, 37.8, 26.2, 106, 56.6, 14.3, 41.5 (2×), 17.7, 52.2, 25.4, 50, 41.8, 20.6, 51.4, 21.4, 65.7, 62.6, 59.9, 60.4, 50.3, 71.6, 66.8, 23, 14.6, 66.5, 34.4, 59.6% and active: -20.7%, -17.3%”; in the assay with HCC-2998 colon (runs of 2009) it was “inactive: 27.6, 17, 58, 10, 60.7 (2×), 71.2, 77.1, 67.6, 79.1, 69.9, 73, 70.2, 30.9, 62.8, 71.7, 43.8, 40.9, 46.5, 54.9, 79.9, 57.8, 40, 46.8, 51 (2×), 62.1, 43.6, 49.2 (2×), 52.5, 42.3, 77.3, 50.9, 42.6, 46.6, 68.4, 72.5, 67.5, 58.5, 44.6, 39.6, 33.4, 49, 48.3, 54.5, 43, 47.3, 32, 54.1, 45.4, 52.9, 22.4, 36.3, 46.2, 72.2, 63.7, 32.9, 51.1, 57.5, 62.6, 49.3% and active: -2.51%”; in the assay with HCC-2998 colon (runs of 2010) it was “inactive: 79.9, 59.1, 61.9, 46.4, 49.6, 59.5, 68.7, 70.7, 55.9, 41.2, 55.6, 62.1, 55.2, 57.8, 23.5, 35.5, 41.4, 42.3, 61.6 (3×), 37.3, 73.6, 71.2, 60.3, 45.1, 89.9, 49, 60.1, 77.2, 86.2, 59, 85.8, 60.2, 68.4, 58.1, 77.6, 62.6, 61.5, 67.1, 58.7, 65.5, 72.2% and active: 8.89%”. Moreover, the growth result with HCC-2998 colon (runs of 2011) is “inactive: 69.3, 62.9, 61.7, 62, 74.8, 60.1, 69, 58, 72.8, 69.1, 63.6 (2×), 66.3, 68.4 (2×), 66.5, 64.4, 62.8, 67.7 (2×), 74.5, 63.1, 66, 70.8, 63.8, 59, 56.8, 45.9, 55.5, 55.6 (2×), 50.8, 49.6, 50.6 (2×), 55.7 (2×), 50.7 (2×), 45.3, 40.5, 48.8, 43.4, 37.2, 53.4, 49.7, 46.9, 54.9, 56.5, 43.5, 45.2, 46.2, 62.4, 59.1, 66.8, 59.3%”; in the assay on HCC-2998 colon (runs of 2012), “inactive: 59.3, 44.9, 45.9, 51.7, 64.6, 64.5 (2×), 65.1, 71.6, 74.5, 46.8 (3×), 33, 52, 53.6, 59.1, 54.1, 63.9, 77.6, 52.6, 49.3, 52.8, 40.6, 41.2, 51.9, 61.1, 51.4, 56.7, 65.5, 68.7, 80.1, 75.6, 58.3, 70.9, 52.5, 54.7, 68.4, 46.9, 67.9, 80, 77.7, 50.3, 65.4, 68.8, 66.7 (2×), 70, 72.6, 77.3, 74.6 (2×), 71.3 (2×), 61, 65.9, 76.4, 75, 79.4, 93.5, 72.1, 76.1, 68.2, 72, 88.3, 78.5, 73.2, 37.5%”; in the assay on HCC-2998 colon (runs of 2013), “inactive: 68.8, 59.6, 65.4, 67.7, 82.3, 74 (2×), 76 (2×), 48.2, 65.1, 71.6, 80.7, 73.3, 69.1, 81.4, 73.7, 80.5, 73.4, 62.4, 66.3 (2×), 57.5, 73.8, 71.8, 59.8, 68.1, 79.1, 74.1 (2×), 79.6, 58.2, 60, 84.5, 66.9 (2×), 83.9, 84.3, 89.4, 79.2, 79.8, 71.4, 77.1 (2×), 74.9, 69.3, 64.1, 79.5, 76.4, 72.8, 62 (2×), 64, 58.9, 87.9, 49.2, 51.9, 53.6, 52.9, 66.2, 61, 62.6, 63.9, 54.4, 61.6, 63.4, 55.4, 72.7, 52.5, 57.9, 62.8, 61.8%”; in the assay on HCC-2998 colon (runs of 2014), “inactive: 76.9, 61.9, 51.2, 71.6, 65.3, 56.5, 68.2, 59.1, 58.6, 56.2, 59.5, 69.6, 57.8 (2×), 67.3, 74.1, 52.7, 57.2, 67.1, 60.2 (2×), 70.2, 56.6, 69.2, 57 (3×), 64, 64.5, 68.8, 62.9, 67.9, 58.9, 55.7, 63.4, 62.6, 69.9, 64.3, 69.4, 55.6, 58.3, 53.2, 53.7, 51.7, 44.7, 44.8, 60.1, 58.4, 59.3, 53.6, 58, 64.6, 67.2, 56.8 (2×), 46.3, 34.3, 46, 66.3, 65.6, 65.5 (2×), 49.1, 63.8 (2×), 57.9, 70, 39, 48.6, 51.9, 43.2, 59.8, 61, 45.4, 70.9, 63.7, 44.5%”; in the assay on HCC-2998 colon (runs of 2015), “inactive: 63.2, 76.1, 73.9, 60.7 (2×), 61.9 (2×), 56.6 (3×), 62.7, 69.3, 55.5, 66.9, 62.6, 49.1 (3×), 50.4, 62, 56.7, 47.8 (3×), 51.4, 46.4, 60.4 (2×), 53.6, 66.6, 52.9 (2×), 54.9 (2×), 52.3, 57.7, 66.1, 48.7, 60.6, 65.5, 58.8, 60, 67.4, 69.5, 56.8, 54.7 (3×), 42.1, 60.1, 72.5, 64.3, 60.3, 46.6 (2×), 67.5, 69.6, 51.2, 54.4, 45.6, 59.8, 59.9, 57 (2×), 58, 63.3, 64.4, 54.1, 52.5 (2×), 54.2, 46.1, 63.5, 55.2, 72.8, 58.7, 49.5, 64.1%”; in the assay on HCC-2998 colon (runs of 2016), “inactive: 73.2, 76.3 (2×), 58, 66.1 (2×), 50.4, 56.6 (2×), 65.7, 58.6 (2×), 67.9, 53.1, 67.2, 47.8, 63.3 (2×), 49.8, 66, 59.6, 45.6, 55.5 (2×), 72.2, 61.9 (2×), 68.8, 65.6, 54.2, 49.5, 53.6 (2×), 64.1, 73, 76, 64.6 (2×), 60.3, 77.2, 78.4, 78.8, 64.7, 74, 77.3, 71.9, 72.7, 67.6, 70.3 (3×), 69.3, 71.2, 75.6, 61.1 (2×), 69, 61, 70, 67.4, 78.2, 72.1, 63.5, 61.6, 62.4, 61.5, 67.3, 62.5, 59.1, 68.6 (2×), 55.7, 71, 81.1, 71.8, 60.1, 57, 61.7, 65.2 (2×), 58.4, 86.1, 85.7, 74.1%”. The growth result in the assay on HCC-2998 colon (runs of 2017) was “inactive: 62.1 (2×), 62.8 (3×), 66.1, 63.2, 62.6, 58.6, 59.3 (2×), 46.5, 53.6 (2×), 54.4 (2×), 58.1, 53.1 (2×), 53.4, 46.1 (2×), 49.4, 52.2, 54.9, 58.2, 59.7 (2×), 45.1, 53, 58, 66.8 (2×), 58.4 (2×), 69, 69.2, 60, 60.1 (2×), 56.1, 56.5, 59, 67.5, 53.7, 57.3, 54.2, 57.8, 52.3 (2×), 71.2, 74.2, 64.4, 53.8 (2×), 56.2, 58.5, 56, 57.9, 69.8, 68.6, 81.8, 75.9, 55.6, 56.6, 64.3, 51.3, 52.6, 43.2, 43.5, 49.8, 51.6, 47.1, 42.5, 59.1, 57.2, 56.8, 61.5, 61.7, 55.4, 46.7%”; with HCC-2998 colon (runs of 2018), “inactive: 56.5 (2×), 63.1, 79, 77, 51.3, 50.9, 52.3, 48.7, 91, 43.3, 64, 60.7 (2×), 62.6, 73.1, 74.5, 70, 53.2, 59.1, 57.2, 54.5, 59.7, 59.3, 62, 56.1, 56.2, 60.6, 53.8, 54, 57.3 (2×), 52, 57.9 (2×), 59.8, 52.7, 65.9, 61 (3×), 58.4, 56.7, 65.3, 55.5, 62.3, 52.5, 52.8, 72.2, 68.5, 32, 55.2%”; in the assay on HCC-2998 colon (runs of 2019) it was “inactive: 33.6, 29.4, 40.5, 26.4, 33.7, 45, 48.5, 48.4, 50.8 (2×), 50.4, 56.5, 59.6, 59.9, 42.3, 51.6 (2×), 53.1, 54.9, 56.8 (2×), 55.5, 54.2, 63.6, 63.3, 51.2, 63.5, 59.2, 58, 52.2, 66.6, 57.8, 59, 69.7, 72.4, 68.7, 73.6, 77.2, 58.3, 48.7, 62.5, 54, 57.3, 47.7, 52.7, 44%”; with HCC-2998 colon (runs of 2020) it was “inactive: 34.6, 39.6, 42.3, 50.4, 53.2, 49.2, 59.2, 60, 53.3, 54.6 (2×), 50.3, 46.2, 54.7, 53, 52.6, 54.9, 52.1, 57.9, 44.7, 56.8, 55.1, 58.5, 60.6, 51.3%”.
